Results: PubChem BioAssay AID1986 (Sanford-Burnham Center for Chemical Genomics, 2009)
Some of the results follow. Shown are side measurements of this screen, not its main read-out; they come without a call.

Assay: cell-free HIV fusion peptide-binding blockers – biochemical, uHTS, fluorescence dequenching, primary screen (AID 1986)
Settings: 30 min, measured here: repeat confirmation average inhibition, at 18.6 µM, stronger effect = higher value

| SMILES | inhibition [%] |
| --- | --- |
| CCOc1ccc(NC(=O)c2c[nH]n3c(=O)cc(C4CCN(C(=O)OC(C)(C)C)CC4)nc23)cc1 | 56.4 |
| COc1ccccc1/C=C1\SC(=S)N(CCC(=O)Nc2ccc(C(=O)O)c(O)c2)C1=O | 78.4 |
| O=C(CN1C(=O)/C(=C2\SC(=S)N(CCS(=O)(=O)O)C2=O)c2ccccc21)Nc1cccc(Br)c1 | 80.1 |
| CC(C)S(=O)(=O)C1=NSC2=NC(=O)/C(=C\c3ccc(OC(=O)c4ccco4)cc3)C(=N)N21 | 57.2 |
| N=C1/C(=C\c2ccc(-c3cccc(C(=O)O)c3)o2)C(=O)N=C2SC=C(c3ccccc3)N12 | 78.7 |
| COc1cc(/C=N/Nc2ccc(Cl)c(C(=O)O)c2)ccc1OC(=O)c1ccccc1F | 57.6 |
| COc1ccc(/C=N/NC(=O)c2[nH]c3ccc(Br)cc3c2-c2ccccc2)c(C(=O)O)c1OC | 53 |
| CC(/C=C1\SC(=S)N(c2ccc(C(=O)O)cc2)C1=O)=C\c1ccccc1 | 62.4 |
| N#C/C(=C\c1ccc(O)c([N+](=O)[O-])c1)c1nc2ccccc2s1 | 67.3 |
| O=C(O)CSc1nc(-c2ccc(Cl)cc2)nc2c1oc1ccccc12 | 55.5 |
| CC(C)CCN1C(=O)c2ccc(C(=O)Nc3ccc(Br)cc3C(=O)O)cc2C1=O | 71.2 |
| N#Cc1c(-c2ccccc2)nc(SCc2ccc(Cl)cc2)[nH]c1=O | 59.3 |
| O=C(CCN1C(=O)/C(=C\c2ccccc2F)SC1=S)Nc1ccc(C(=O)O)c(O)c1 | 71.6 |
| COc1cc(/C=N/NC(=O)C(Cc2c[nH]c3ccccc23)NC(=O)OCc2ccccc2)cc([N+](=O)[O-])c1O (configuration not stated) | 55.3 |
| O=S(=O)(Nc1nc2ccccc2nc1Nc1ccc(N2CCOCC2)cc1)c1cc(Cl)ccc1Cl | 63.8 |
| Cc1cc(Cl)ccc1OC(C)C(=O)Nc1ccc(S(=O)(=O)Nc2cnc3ccccc3n2)cc1 (configuration not stated) | 64.3 |
| CN(C)S(=O)(=O)c1cccc(-c2nn(-c3ccccc3)cc2/C=C2\SC(=S)N(CC(=O)O)C2=O)c1 | 66.2 |
| CSc1ccc(C(c2c(C(=O)O)[nH]c3ccccc23)c2c(C(=O)O)[nH]c3ccccc23)cc1 | 78.9 |
| COc1cc(/C=C2/C(=O)NN(c3ccc(C)c(Cl)c3)C2=O)cc([N+](=O)[O-])c1O | 62.9 |
| COc1ccc(C(=O)Nc2ccccc2C(=O)O)cc1NC(=O)C(c1ccccc1)c1ccccc1 | 69.9 |
| O=C(O)CN1C(=O)/C(=C\c2cccc(OCc3ccc(Cl)cc3Cl)c2)SC1=S | 87.2 |

| SMILES | inhibition [%] |
| --- | --- |
| COc1ccc(-c2nn(-c3ccccc3)cc2/C=C\C(=O)Nc2ccc(C(=O)O)cc2)cc1 | 64.7 |
| COc1cc(NS(=O)(=O)c2ccc(Nc3nc(-c4ccccc4)cs3)cc2)nc(OC)n1 | 52.3 |
| O=C(O)c1[nH]c2ccccc2c1C(c1cc(Br)ccc1O)c1c(C(=O)O)[nH]c2ccccc12 | 78.3 |
| COc1cc(/C=C2\C(=N)N3N=C(S(C)(=O)=O)SC3=NC2=O)ccc1OCCOc1ccc(C)cc1 | 78.9 |
| COc1ccc(C(=O)/C=C/c2ccc(-c3ccccc3)cc2)cc1CSCC(=O)O | 70.7 |
| O=C(O)c1cc(-c2ccc(/C=C3\NC(=O)N(c4ccc(Cl)cc4)C3=O)o2)ccc1Cl | 54.9 |
| O=C(O)c1ccccc1N=Nc1c(O)[nH]c2ccc([N+](=O)[O-])cc12 | 51.1 |
| O=C(O)c1ccccc1-c1ccccc1C(=O)Nc1ccc(-c2nc3cc(Cl)ccc3o2)cc1 | 57.7 |
| COc1cc(/C=C2/SC(=S)N(CC(=O)O)C2=O)ccc1OCC(=O)Nc1ccc(C)c(C)c1 | 78.5 |
| Cc1ccc(-c2nc(SCC(=O)Nc3ccccc3OC(F)F)c3c(C)c(C(=O)O)sc3n2)cc1 | 73.3 |
| O=C(O)C1Nc2c(cccc2C(F)(F)F)C2C=CCC12 (configuration not stated) | 54.3 |
| CC(C)(C)c1ccc(OCC(=O)NNC(=S)NC(=O)c2ccccc2[N+](=O)[O-])c(Br)c1 | 52.8 |
| Cc1noc(NS(=O)(=O)c2ccc(NC(=O)Nc3ccc(Cl)c(Cl)c3)cc2)c1C | 51.7 |
| O=C(O)CN1C(=O)/C(=C\c2cc(Br)ccc2OCc2ccc(F)cc2)SC1=S | 69.5 |
| COc1cc(/C=C(\C#N)c2nc3ccccc3s2)cc([N+](=O)[O-])c1O | 76.2 |
| CCOc1ccc(CCNC(=O)c2ccc3c(=O)[nH]c4c(C(=O)NC(C)C)sc(=S)n4c3c2)cc1 | 61.5 |
| COc1cc(/C=N/NS(=O)(=O)c2ccc3ccccc3c2)ccc1OCc1ccc(C(=O)O)cc1 | 55.6 |
| Cc1cc(Cl)ccc1OC(C)C(=O)Nc1ccc(C(=O)Nc2ccccc2C(=O)O)cc1 (configuration not stated) | 76.8 |
| CCCOc1ccc(C(=O)NNC(=S)NC(=O)c2cc(-c3ccccc3)nc3ccccc23)cc1 | 57.6 |
| CC1=NN(c2ccc(C(=O)O)cc2)C(=O)/C1=C\c1ccc(OC(=O)c2cccs2)cc1 | 58.7 |
| CC(C)S(=O)(=O)C1=NSC2=NC(=O)/C(=C\c3ccc(-c4cccc(C(=O)O)c4)o3)C(=N)N21 | 54.2 |
